# Measured values from the supplement of paper PMC3334620.
# The full ranking holds about 33,000 sequences; the median of “E-score (-0.5 to 0.5)” is about -0.01, and the highest 2% start at about 0.26. This is one part of the list.
# Target: Ste12 (UniProt P13574)
# Assay: PBM E-score (8-mer binding enrichment) (E-score (-0.5 to 0.5)); higher = stronger / more preferred TF binding; most listed sequences are background and not binding sites
# Details: protein concentration: 200 nM; construct: GST-DNA-binding domain
# In short: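 PURExpress in vitro transcription/translation supplied GST-tagged yeast transcription factors, either full-length or DNA-binding domain. Applied at about 100-200 nM to universal all-10-mer Agilent arrays double-stranded by primer extension, the bound protein was detected with fluorescent anti-GST. E-scores, modified Wilcoxon-Mann-Whitney statistics, were given by the Universal PBM Analysis Suite to ungapped eight-base words pooled with their reverse complements after masliner normalisation.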
row,Sequence,PBM E-score
1,GGATGTTA,0.111
2,CTCGGAAA,0.188
3,CTTGCAGA,-0.0853
4,ACAACACT,0.155
5,CCAAATAC,0.0263
6,ACGCCGTA,-0.071
7,AACATAGC,-0.103
8,CACATCCA,-0.0244
9,GCATAGGC,-0.103
10,AGGGGTAT,0.0212
11,CTATAATA,-0.00072
12,CAAGCATA,-0.0242
13,GTCGCGGA,-0.0155
14,ACGCATGC,0.0674
15,CGATAGCG,0.138
16,CCAGCGGA,-0.178
17,ACTAAATA,0.214
18,AAGGCTTG,0.0185
19,CAACGTAC,-0.0196
20,CCCTCTTA,-0.121
21,GTCGGTTA,0.114
22,CGGGCGAA,-0.0291

row,Sequence,PBM E-score
1,GGGCGAAC,0.0237
2,CACCGGAC,-0.0611
3,ACCGTCGT,-0.0196
4,CATCTTCC,0.16
5,ACATTGGC,-0.01
6,CGCCAGGA,-0.00871
7,AGCGACGG,-0.0105
8,ACGAGCAG,-0.00712
9,AAATCATA,0.201
10,CTGGGCTA,-0.125
11,CTATTTCA,0.233
12,CGCGCTCA,-0.0477
13,ATACGACC,-0.0988
14,AAGCGAAC,-0.202
15,ACACACTA,-0.0214
16,GACGGGAC,-0.179
17,GAATCCAA,0.0666
18,AAGGAAAC,-0.0908
19,ACCCAGTG,-0.0603
20,AATGCATT,0.11
21,ATCCAACG,-0.153
22,AACCATGA,0.165

row,Sequence,PBM E-score
1,CAGGTTAC,0.0155
2,CAGGATGG,-0.128
3,TAGCGATA,0.0964
4,AGGCGAAA,0.00301
5,CGGAGAGA,0.0507
6,GAGTAACA,0.101
7,CATAAATC,0.217
8,GATTTGGA,-0.072
9,GGGAGGGA,0.252
10,ATTATGCA,0.104
11,AAAGCATG,0.157
12,CCGGGAAA,0.0597
13,AAAATATT,0.266
14,GCTCTCCC,-0.0908
15,CGATTTAA,0.1
16,CATTAAAC,0.191
17,CTGTAACC,0.183
18,CAGGGATG,-0.185
19,AGTGGACC,-0.271
20,AATGGGGC,-0.0469
21,ATGTCCGA,-0.0197
22,GACCAACC,-0.234

row,Sequence,PBM E-score
1,AAAGCAGA,0.102
2,CAAGAGGA,0.00931
3,ACATACCC,0.053
4,GCAAAGGA,0.0239
5,ATCAACTA,0.141
6,ATATTCCC,0.146
7,GAATTGCC,-0.0798
8,TTGTGAAA,0.342
9,ACATGATC,0.145
10,AAGGTTTA,0.0453
11,CGCCAGCG,-0.184
12,GCATTCCC,-0.216
13,TACCTCAA,0.108
14,ACGGAAGC,-0.0171
15,CACCCTGC,-0.0282
16,AAGGGTCA,-0.185
17,ATCTTCTA,0.168
18,ATGAGTTG,0.14
19,GGGAGCTA,-0.166
20,CGTACGCC,-0.074
